Experimental data published in the supplement of paper PMC11055344.

Legend:
penicillin G = compound: CC1(C)S[C@@H]2[C@H](NC(=O)Cc3ccccc3)C(=O)N2[C@H]1C(=O)O [penicillin G]; test: Broth microdilution.
amoxicillin = compound: CC1(C)S[C@@H]2[C@H](NC(=O)[C@H](N)c3ccc(O)cc3)C(=O)N2[C@H]1C(=O)O [amoxicillin]; test: Broth microdilution.

Test System | MIC (penicillin G) [µg/mL] | MIC (amoxicillin) [µg/mL]
Streptococcus pneumoniae isolate 1 (PBP alleles 1a 2b 2x: 2_0_6, serotype: 33F) | ≤ 0.01 | ≤ 0.01
Streptococcus pneumoniae isolate 2 (PBP alleles 1a 2b 2x: 2_0_0, serotype: 19F) | 0.03 | ≤ 0.01
Streptococcus pneumoniae isolate 3 (PBP alleles 1a 2b 2x: 0_0_53, serotype: 10A) | 0.03 | ≤ 0.01
Streptococcus pneumoniae isolate 4 (PBP alleles 1a 2b 2x: 2_0_6, serotype: 23A) | ≤ 0.01 | ≤ 0.01
Streptococcus pneumoniae isolate 5 (PBP alleles 1a 2b 2x: 0_0_3, serotype: 35F) | 0.03 | ≤ 0.01
Streptococcus pneumoniae isolate 6 (PBP alleles 1a 2b 2x: 24_27_28, serotype: 15A) | 0.25 | 0.03
Streptococcus pneumoniae isolate 7 (PBP alleles 1a 2b 2x: 2_0_2, serotype: 21) | ≤ 0.01 | ≤ 0.01
Streptococcus pneumoniae isolate 8 (PBP alleles 1a 2b 2x: 2_6_0, serotype: 11A) | 0.03 | ≤ 0.01
Streptococcus pneumoniae isolate 9 (PBP alleles 1a 2b 2x: 1_2_2, serotype: 22F) | ≤ 0.01 | ≤ 0.01
Streptococcus pneumoniae isolate 10 (PBP alleles 1a 2b 2x: 2_0_6, serotype: 23A) | 0.03 | 0.03
Streptococcus pneumoniae isolate 11 (PBP alleles 1a 2b 2x: 2_0_2, serotype: 21) | 0.03 | ≤ 0.01
Streptococcus pneumoniae isolate 12 (PBP alleles 1a 2b 2x: 1_0_0, serotype: 15B/C) | ≤ 0.01 | ≤ 0.01
Streptococcus pneumoniae isolate 13 (PBP alleles 1a 2b 2x: 2_6_0, serotype: 11A) | ≤ 0.01 | ≤ 0.01
Streptococcus pneumoniae isolate 14 (PBP alleles 1a 2b 2x: 1_0_0, serotype: 15A) | 0.03 | 0.03
Streptococcus pneumoniae isolate 15 (PBP alleles 1a 2b 2x: 78_0_0, serotype: Serogroup 24) | ≤ 0.01 | ≤ 0.01
Streptococcus pneumoniae isolate 16 (PBP alleles 1a 2b 2x: 2_0_3, serotype: 7C) | ≤ 0.01 | ≤ 0.01
Streptococcus pneumoniae isolate 17 (PBP alleles 1a 2b 2x: 1_0_0, serotype: 15A) | ≤ 0.01 | ≤ 0.01
Streptococcus pneumoniae isolate 18 (PBP alleles 1a 2b 2x: 2_3_2, serotype: 3) | 0.03 | 0.06
Streptococcus pneumoniae isolate 19 (PBP alleles 1a 2b 2x: 23_4_77, serotype: 12F) | 0.06 | 0.03
Streptococcus pneumoniae isolate 20 (PBP alleles 1a 2b 2x: 12_0_0, serotype: 31) | 0.03 | ≤ 0.01

Test System | MIC (penicillin G) [µg/mL] | MIC (amoxicillin) [µg/mL]
Streptococcus pneumoniae isolate 21 (PBP alleles 1a 2b 2x: 1_0_0, serotype: 15A) | 0.03 | ≤ 0.01
Streptococcus pneumoniae isolate 22 (PBP alleles 1a 2b 2x: 2_0_3, serotype: 7C) | ≤ 0.01 | ≤ 0.01
Streptococcus pneumoniae isolate 23 (PBP alleles 1a 2b 2x: 0_0_2, serotype: 35D) | ≤ 0.01 | ≤ 0.01
Streptococcus pneumoniae isolate 24 (PBP alleles 1a 2b 2x: 2_0_6, serotype: 33F) | ≤ 0.01 | ≤ 0.01
Streptococcus pneumoniae isolate 25 (PBP alleles 1a 2b 2x: 0_0_0, serotype: 15B/C) | 0.03 | ≤ 0.01
Streptococcus pneumoniae isolate 26 (PBP alleles 1a 2b 2x: 2_0_2, serotype: 15B/C) | 0.03 | 0.03
Streptococcus pneumoniae isolate 27 (PBP alleles 1a 2b 2x: 0_0_2, serotype: 35B) | 0.03 | ≤ 0.01
Streptococcus pneumoniae isolate 28 (PBP alleles 1a 2b 2x: 2_0_6, serotype: 23A) | 0.03 | 0.03
Streptococcus pneumoniae isolate 29 (PBP alleles 1a 2b 2x: 0_0_0, serotype: 15B/C) | 0.03 | ≤ 0.01
Streptococcus pneumoniae isolate 30 (PBP alleles 1a 2b 2x: 2_0_2, serotype: 21) | ≤ 0.01 | ≤ 0.01
Streptococcus pneumoniae isolate 31 (PBP alleles 1a 2b 2x: 86_82_162, serotype: Non-typeable/NCC2a) | ≤ 0.01 | ≤ 0.01
Streptococcus pneumoniae isolate 32 (PBP alleles 1a 2b 2x: 0_0_0, serotype: 15B/C) | 0.03 | ≤ 0.01
Streptococcus pneumoniae isolate 33 (PBP alleles 1a 2b 2x: 2_0_0, serotype: 19F) | 0.03 | ≤ 0.01
Streptococcus pneumoniae isolate 34 (PBP alleles 1a 2b 2x: 12_0_0, serotype: 31) | ≤ 0.01 | ≤ 0.01
Streptococcus pneumoniae isolate 35 (PBP alleles 1a 2b 2x: 78_0_0, serotype: Serogroup 24) | 0.03 | ≤ 0.01
Streptococcus pneumoniae isolate 36 (PBP alleles 1a 2b 2x: 1_0_0, serotype: 15A) | ≤ 0.01 | ≤ 0.01
Streptococcus pneumoniae isolate 37 (PBP alleles 1a 2b 2x: 3_6_5, serotype: 8) | 0.03 | ≤ 0.01
Streptococcus pneumoniae isolate 38 (PBP alleles 1a 2b 2x: 1_0_187, serotype: 19A) | 0.03 | ≤ 0.01
Streptococcus pneumoniae isolate 39 (PBP alleles 1a 2b 2x: 23_27_77, serotype: 12F) | 0.125 | 0.125
Streptococcus pneumoniae isolate 40 (PBP alleles 1a 2b 2x: 0_0_2, serotype: 10A) | 0.03 | ≤ 0.01

Test System | MIC (penicillin G) [µg/mL] | MIC (amoxicillin) [µg/mL]
Streptococcus pneumoniae isolate 41 (PBP alleles 1a 2b 2x: 2_0_0, serotype: 17F) | ≤ 0.01 | ≤ 0.01
Streptococcus pneumoniae isolate 42 (PBP alleles 1a 2b 2x: 1_0_0, serotype: 15B/C) | 0.03 | ≤ 0.01
Streptococcus pneumoniae isolate 43 (PBP alleles 1a 2b 2x: 2_6_10, serotype: 11A) | ≤ 0.01 | ≤ 0.01
Streptococcus pneumoniae isolate 44 (PBP alleles 1a 2b 2x: 2_6_0, serotype: 11A) | 0.03 | ≤ 0.01
Streptococcus pneumoniae isolate 45 (PBP alleles 1a 2b 2x: 2_0_6, serotype: 33F) | 0.03 | ≤ 0.01
Streptococcus pneumoniae isolate 46 (PBP alleles 1a 2b 2x: 0_0_0, serotype: 34) | 0.03 | 0.03
Streptococcus pneumoniae isolate 47 (PBP alleles 1a 2b 2x: 2_New_2, serotype: 21) | 0.03 | ≤ 0.01
Streptococcus pneumoniae isolate 48 (PBP alleles 1a 2b 2x: 1_0_0, serotype: 15A) | 0.03 | ≤ 0.01
Streptococcus pneumoniae isolate 49 (PBP alleles 1a 2b 2x: 3_6_5, serotype: 8) | 0.03 | 0.03
Streptococcus pneumoniae isolate 50 (PBP alleles 1a 2b 2x: 7_1_1, serotype: 23B1) | 0.25 | 0.06
Streptococcus pneumoniae isolate 51 (PBP alleles 1a 2b 2x: 2_0_3, serotype: 7C) | 0.03 | 0.03
Streptococcus pneumoniae isolate 52 (PBP alleles 1a 2b 2x: 0_0_2, serotype: 35B) | 0.03 | 0.03
Streptococcus pneumoniae isolate 53 (PBP alleles 1a 2b 2x: 1_2_2, serotype: 22F) | 0.03 | ≤ 0.01
Streptococcus pneumoniae isolate 54 (PBP alleles 1a 2b 2x: 1_0_0, serotype: 15A) | 0.03 | ≤ 0.01
Streptococcus pneumoniae isolate 55 (PBP alleles 1a 2b 2x: 1_0_187, serotype: 19A) | ≤ 0.01 | ≤ 0.01
Streptococcus pneumoniae isolate 56 (PBP alleles 1a 2b 2x: 2_6_0, serotype: 11A) | ≤ 0.01 | ≤ 0.01
Streptococcus pneumoniae isolate 57 (PBP alleles 1a 2b 2x: 0_0_0, serotype: 15B/C) | 0.03 | 0.03
Streptococcus pneumoniae isolate 58 (PBP alleles 1a 2b 2x: 2_4_0, serotype: 38) | 0.03 | 0.03
Streptococcus pneumoniae isolate 59 (PBP alleles 1a 2b 2x: 2_4_0, serotype: 38) | 0.03 | 0.03

MIC of nasopharyngeal S. pneumoniae isolates by broth microdilution (range and time not stated); higher = less susceptible. No active / inactive call per row; the paper counts penicillin above 0.06 and amoxicillin above 0.5 mg/L as non-susceptible (EUCAST). The lowest value, 0.01, is taken as the floor ('<='); the source prints it plain. Penicillin G is assumed for 'penicillin'. Isolates are numbered anew. PBP alleles are the type numbers of penicillin-binding proteins 1a, 2b and 2x; equal numbers mean equal sequences.
